From PMC4336329 (PLoS ONE, 2015) come the findings set out here.

Among all 310,000 compounds or so, about 2,200 (0.71%) showed an effect of 50% or more. Effects have a minus sign here. The list shows a part of the results.

Chain of human ether-à-go-go-related gene (hERG) potassium channel (Q12809 whole entry, looked up): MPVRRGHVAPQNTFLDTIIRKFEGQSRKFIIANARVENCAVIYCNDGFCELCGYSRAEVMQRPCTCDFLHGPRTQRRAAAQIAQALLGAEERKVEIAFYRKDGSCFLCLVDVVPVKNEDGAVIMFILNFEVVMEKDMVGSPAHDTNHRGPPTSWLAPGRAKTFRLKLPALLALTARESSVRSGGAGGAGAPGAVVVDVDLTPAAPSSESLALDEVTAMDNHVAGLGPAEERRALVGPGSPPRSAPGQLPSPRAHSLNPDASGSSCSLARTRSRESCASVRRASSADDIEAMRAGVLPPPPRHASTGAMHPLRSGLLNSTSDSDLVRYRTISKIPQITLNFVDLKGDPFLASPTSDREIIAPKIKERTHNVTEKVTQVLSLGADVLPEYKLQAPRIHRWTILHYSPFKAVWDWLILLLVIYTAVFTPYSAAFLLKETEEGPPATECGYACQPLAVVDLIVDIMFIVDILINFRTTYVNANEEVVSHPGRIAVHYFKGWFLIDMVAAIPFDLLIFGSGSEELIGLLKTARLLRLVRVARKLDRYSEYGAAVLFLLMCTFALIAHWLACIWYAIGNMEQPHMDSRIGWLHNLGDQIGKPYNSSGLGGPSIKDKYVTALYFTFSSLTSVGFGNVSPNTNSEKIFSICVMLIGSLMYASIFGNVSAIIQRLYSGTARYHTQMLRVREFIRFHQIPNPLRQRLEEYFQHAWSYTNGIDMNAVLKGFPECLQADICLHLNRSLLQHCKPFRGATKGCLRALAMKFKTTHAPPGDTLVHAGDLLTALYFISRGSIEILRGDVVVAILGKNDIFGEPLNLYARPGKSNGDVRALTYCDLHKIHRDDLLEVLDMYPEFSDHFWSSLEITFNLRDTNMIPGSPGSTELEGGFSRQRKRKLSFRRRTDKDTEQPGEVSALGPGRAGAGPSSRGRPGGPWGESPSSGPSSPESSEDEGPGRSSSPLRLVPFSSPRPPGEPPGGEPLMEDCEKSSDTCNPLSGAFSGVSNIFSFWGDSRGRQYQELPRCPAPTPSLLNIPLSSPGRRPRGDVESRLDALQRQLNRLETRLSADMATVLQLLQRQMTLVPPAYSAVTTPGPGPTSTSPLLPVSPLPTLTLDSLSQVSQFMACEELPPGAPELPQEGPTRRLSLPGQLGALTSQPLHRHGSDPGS

This test has as its target human ether-à-go-go-related gene (hERG) potassium channel (human, UniProt Q12809). The test can be described thus: primary screen, population patch clamp on CHO cells stably expressing hERG.
In the case of `COC(=O)c1ccc(C23CC4(C2)[C@H](CN(CC2CCCCC2)[C@@H]4c2ccccc2)C3c2ccc(C(F)(F)F)cc2)cc1` (stereo partly drawn), the “hERG current change (%, negative = inhibition) at 1uM” value turned out to be 6.45%.

In the case of `COc1cc(NC(=O)COC(=O)CSc2ccccc2F)c(C)cc1[N+](=O)[O-]`, the “hERG current change (%, negative = inhibition) at 1uM” value is 13.9%.

As for `CSc1oc(-c2ccc(F)cc2)nc1S(=O)(=O)c1ccccc1`, the “hERG current change (%, negative = inhibition) at 1uM” value is given as -1.68%.

Consider `Cc1nnc(NC(=O)CSc2nnc(CCNC(=O)c3ccccc3F)n2C)s1`, for which the “hERG current change (%, negative = inhibition) at 1uM” value was 11.9%.

Consider `Cc1nc2ccccn2c1C(=O)/C=C/c1ccc(F)cc1`, for which the “hERG current change (%, negative = inhibition) at 1uM” value is on record as 4.1%.

For the molecule `Cn1ccnc1C(=O)c1cccc(Br)c1`, the “hERG current change (%, negative = inhibition) at 1uM” value turned out to be 1.86%.

As for `CCOC(=O)c1sc(=NC(=O)c2c(F)cccc2F)n(C)c1C`, the “hERG current change (%, negative = inhibition) at 1uM” value stood at 9.05%.

Regarding `Cc1cccc(-n2ccnc2SCC(=O)Nc2nnc(C)s2)c1`, the “hERG current change (%, negative = inhibition) at 1uM” value turned out to be 0.329%.

For `CCOc1ccc(N=C(NN)c2ccc3ccccc3n2)cc1`, the “hERG current change (%, negative = inhibition) at 1uM” value is listed as 11.9%.

Consider `O=C(c1ccc(OC2CCN(C/C=C/c3ccccc3)CC2)cc1)N1CCCC1`, for which the “hERG current change (%, negative = inhibition) at 1uM” value is on record as -27.1%.

For the molecule `Cc1cccc(N2CC(C(=O)Nc3ccc(S(=O)(=O)N4CCOCC4)cc3)CC2=O)c1` (stereo not drawn), the “hERG current change (%, negative = inhibition) at 1uM” value worked out at 18.8%.

`COc1ccc(CC(=O)N2CCN=C2SCc2ccc([N+](=O)[O-])cc2)cc1`: the “hERG current change (%, negative = inhibition) at 1uM” value is recorded as -8.88%.

On to `C=CCNc1ncnc2sc(SC)nc12`, for which the “hERG current change (%, negative = inhibition) at 1uM” value is 10.2%.

Regarding `CC1CCCCN1C(=O)Cn1c(=O)n(CCC(=O)NCc2ccco2)c(=O)c2sccc21` (stereo not drawn), the “hERG current change (%, negative = inhibition) at 1uM” value was -1.72%.

Regarding `Cc1ccc(Cn2c(=N)c(C(=O)NCCN3CCOCC3)cc3c(=O)n4ccccc4nc32)cc1`, the “hERG current change (%, negative = inhibition) at 1uM” value is -8.25%.

In the case of `O=C(Nc1ncccc1O)c1cc2ccccc2o1`, the “hERG current change (%, negative = inhibition) at 1uM” value worked out at 24.1%.

For the molecule `O=C(NCc1ccccc1)C(c1ccncc1)N(C(=O)c1csnn1)c1ccccc1F` (stereo not drawn), the “hERG current change (%, negative = inhibition) at 1uM” value is listed as 9.57%.

With `CN(Cc1ccccc1)C(=O)c1ccc(NC(=O)Cc2cccc(NC(=O)C3CCCN(C(=O)C4CCC4)C3)c2)cc1` (stereo not drawn), the “hERG current change (%, negative = inhibition) at 1uM” value is reported as 9.88%.

`COc1ccccc1-c1coc2cc(O)cc(O)c2c1=O`: the “hERG current change (%, negative = inhibition) at 1uM” value turned out to be 5.23%.

On to `CC(=O)Nc1ccc(NC(=O)[C@@H](NC(=O)c2ccccc2F)C(C)C)cc1`, for which the “hERG current change (%, negative = inhibition) at 1uM” value amounted to 16.8%.

With `Cc1ccccc1CS(=O)(=O)Cc1ccc(C(=O)NCc2ccccn2)o1`, the “hERG current change (%, negative = inhibition) at 1uM” value stood at 21.2%.

Regarding `CCCCCNC(=O)C1c2ccccc2Oc2ccccc21`, the “hERG current change (%, negative = inhibition) at 1uM” value was determined as 8.57%.

Consider `CC(=O)Cc1c(C(=O)O)c(C)nn1-c1ccccc1`, for which the “hERG current change (%, negative = inhibition) at 1uM” value turned out to be 16.5%.

As to `O=C1CC(c2ccc3c(c2)OCO3)Sc2nc3ccccc3n21` (stereo not drawn), the “hERG current change (%, negative = inhibition) at 1uM” value worked out at 17.1%.

Turning to `O=C(Cc1ccc2c(c1)CCCC2)Nc1ccc2ccccc2c1`, the “hERG current change (%, negative = inhibition) at 1uM” value is recorded as 27%.

As to `COc1ccccc1C(=O)NC(=S)Nc1ccc(NC(=O)c2ccco2)cc1`, the “hERG current change (%, negative = inhibition) at 1uM” value was -7.22%.

Consider `CS(=O)(=O)N(CC(=O)NC1CCCCC1)Cc1ccc(F)cc1`, for which the “hERG current change (%, negative = inhibition) at 1uM” value was 10.7%.

For the molecule `CCCCn1c(SCC(=O)NCc2cccs2)nc2c1c(=O)n(C)c(=O)n2C`, the “hERG current change (%, negative = inhibition) at 1uM” value was -3.97%.

For `COc1ccccc1N1CCN(C(=O)C(CC(C)C)NC(=O)C2CCCCC2)CC1` (stereo not drawn), the “hERG current change (%, negative = inhibition) at 1uM” value is recorded as 1.29%.

On to `CN1C(=O)C(=Cc2c(OCc3cnc(Cl)s3)ccc3ccccc23)C(=O)N(C)C1=O`, for which the “hERG current change (%, negative = inhibition) at 1uM” value is 16.2%.

`CN(C(=O)Cc1c[nH]c2ccccc12)C(C(=O)Nc1ccc2c(c1)OCO2)c1ccccc1` (stereo not drawn): the “hERG current change (%, negative = inhibition) at 1uM” value worked out at 9.96%.

On to `O=C(C(Sc1ccccc1)c1ccccc1)N1CCN(c2ccccc2F)CC1` (stereo not drawn), for which the “hERG current change (%, negative = inhibition) at 1uM” value is reported as 6.48%.

As for `O=C(CSc1nnnn1C1CCCC1)NCc1ccc2c(c1)OCO2`, the “hERG current change (%, negative = inhibition) at 1uM” value is 9.58%.

For `COCCN(C(=O)CSc1ncn[nH]1)c1c(N)n(Cc2ccccc2)c(=O)[nH]c1=O`, the “hERG current change (%, negative = inhibition) at 1uM” value is given as 19.8%.

With `CC(C)[C@H](CN(N=O)[C@@H](Cc1ccccc1)CN(C)N=O)N(CCc1ccccc1)N=O.[Na+]`, the “hERG current change (%, negative = inhibition) at 1uM” value turned out to be 11.1%.

Consider `CS(=O)(=O)c1ccc(Cl)c(C(=O)O)c1`, for which the “hERG current change (%, negative = inhibition) at 1uM” value is 14.6%.

With `Cc1ccc(Oc2c(C)nc(-c3ccccc3)[nH]c2=O)cc1`, the “hERG current change (%, negative = inhibition) at 1uM” value amounted to 5.4%.

With `Cc1cccc(NC2=NCCCS2)c1`, the “hERG current change (%, negative = inhibition) at 1uM” value amounted to 4.47%.

Take `Cc1cc(OCC(=O)Nc2cnn(CCCC(=O)O)c2)ccc1Cl`: the “hERG current change (%, negative = inhibition) at 1uM” value is listed as 20%.

For the molecule `CC(C)(C)c1nnc(NC(=O)NS(=O)(=O)c2ccccc2)s1`, the “hERG current change (%, negative = inhibition) at 1uM” value is on record as 18.7%.

In the case of `CCOC(=O)[C@@H]1[C@H]2COc3ccccc3[C@H]2N2C(=O)N(c3ccc(Cl)cc3)C(=O)[C@@]12C`, the “hERG current change (%, negative = inhibition) at 1uM” value came out at 9.47%.

Turning to `COc1ccc([N+](=O)[O-])c(OC)c1C(=O)Nc1ccc(F)cc1F`, the “hERG current change (%, negative = inhibition) at 1uM” value is recorded as 11.7%.

With `O=C(NCCN1CCOCC1)c1cc(-c2ccco2)on1`, the “hERG current change (%, negative = inhibition) at 1uM” value was -3.86%.

Turning to `CSCCC(NS(=O)(=O)c1cccs1)C(=O)NCc1ccccc1` (stereo not drawn), the “hERG current change (%, negative = inhibition) at 1uM” value is 15.7%.

As for `Cc1nn(Cc2cccc(C(=O)N3CCCC(C)C3)c2)c(C)c1[N+](=O)[O-]` (stereo not drawn), the “hERG current change (%, negative = inhibition) at 1uM” value is given as -0.335%.
